Measured values reported in the supplement of paper PMC9151546.
Repeats are few or missing, and single values can be far off.

What was measured:
CHO-K1 [1] = experiment: relative survival (nuclei to bead ratio vs DMSO control) (% of vehicle control); higher = more surviving cells
Procedure: (§1)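 Flow-cytometric in vitro micronucleus assay (Litron MicroFlow) in CHO-K1 cells in 96-well plates, 19 concentrations (4.5-200 µM, n=1 per concentration). Without S9, cells were exposed for 24 h and sampled at 48 h. With Aroclor 1254-induced rat liver S9, cells were exposed for 3-4 h and sampled at 27-28 h. Read-outs are %MN and %hypodiploid nuclei relative to nucleated events, and relative survival as the nuclei-to-bead ratio versus the 1% DMSO vehicle control (x100).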

CHO-K1 [2] = experiment: micronucleus frequency (% of nucleated events); higher = more micronuclei (genotoxic)
CHO-K1 [3] = experiment: hypodiploid nuclei frequency (% of nucleated events); higher = more hypodiploid events (aneugenic)
Procedure: as §1

[4] = concentration: 4.44 (µM), S9 metabolic activation: with S9, exposure time: 3-4 hours
[5] = concentration: 4.44 (µM), S9 metabolic activation: without S9, exposure time: 24 hours
[6] = concentration: 5.55 (µM), S9 metabolic activation: with S9, exposure time: 3-4 hours
[7] = concentration: 5.55 (µM), S9 metabolic activation: without S9, exposure time: 24 hours
[8] = concentration: 6.93 (µM), S9 metabolic activation: with S9, exposure time: 3-4 hours
[9] = concentration: 6.93 (µM), S9 metabolic activation: without S9, exposure time: 24 hours
[10] = concentration: 8.66 (µM), S9 metabolic activation: with S9, exposure time: 3-4 hours
[11] = concentration: 8.66 (µM), S9 metabolic activation: without S9, exposure time: 24 hours
[12] = concentration: 10.8 (µM), S9 metabolic activation: with S9, exposure time: 3-4 hours
[13] = concentration: 10.8 (µM), S9 metabolic activation: without S9, exposure time: 24 hours
[14] = concentration: 13.5 (µM), S9 metabolic activation: with S9, exposure time: 3-4 hours
[15] = concentration: 13.5 (µM), S9 metabolic activation: without S9, exposure time: 24 hours
[16] = concentration: 16.9 (µM), S9 metabolic activation: with S9, exposure time: 3-4 hours
[17] = concentration: 16.9 (µM), S9 metabolic activation: without S9, exposure time: 24 hours
[18] = concentration: 21.2 (µM), S9 metabolic activation: with S9, exposure time: 3-4 hours
[19] = concentration: 21.2 (µM), S9 metabolic activation: without S9, exposure time: 24 hours
[20] = concentration: 26.4 (µM), S9 metabolic activation: with S9, exposure time: 3-4 hours
[21] = concentration: 26.4 (µM), S9 metabolic activation: without S9, exposure time: 24 hours
[22] = concentration: 33.1 (µM), S9 metabolic activation: with S9, exposure time: 3-4 hours
[23] = concentration: 33.1 (µM), S9 metabolic activation: without S9, exposure time: 24 hours
[24] = concentration: 41.3 (µM), S9 metabolic activation: with S9, exposure time: 3-4 hours
[25] = concentration: 41.3 (µM), S9 metabolic activation: without S9, exposure time: 24 hours
[26] = concentration: 51.6 (µM), S9 metabolic activation: with S9, exposure time: 3-4 hours
[27] = concentration: 51.6 (µM), S9 metabolic activation: without S9, exposure time: 24 hours
[28] = concentration: 64.6 (µM), S9 metabolic activation: with S9, exposure time: 3-4 hours
[29] = concentration: 64.6 (µM), S9 metabolic activation: without S9, exposure time: 24 hours
[30] = concentration: 80.7 (µM), S9 metabolic activation: with S9, exposure time: 3-4 hours
[31] = concentration: 80.7 (µM), S9 metabolic activation: without S9, exposure time: 24 hours
[32] = concentration: 101 (µM), S9 metabolic activation: with S9, exposure time: 3-4 hours
[33] = concentration: 101 (µM), S9 metabolic activation: without S9, exposure time: 24 hours
[34] = concentration: 126 (µM), S9 metabolic activation: with S9, exposure time: 3-4 hours
[35] = concentration: 126 (µM), S9 metabolic activation: without S9, exposure time: 24 hours
[36] = concentration: 158 (µM), S9 metabolic activation: with S9, exposure time: 3-4 hours
[37] = concentration: 158 (µM), S9 metabolic activation: without S9, exposure time: 24 hours
[38] = concentration: 197 (µM), S9 metabolic activation: with S9, exposure time: 3-4 hours
[39] = concentration: 197 (µM), S9 metabolic activation: without S9, exposure time: 24 hours
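For hypodiploid nuclei frequency (% of nucleated events) in this document: hypodiploid nuclei gated on a flow cytometer with 488 nm excitation after SYTOX Green staining, cultures at 37 °C, positive controls vinblastine without S9 and cyclophosphamide with S9.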
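For micronucleus frequency (% of nucleated events) in this document: cells lysed with nuclei stained by SYTOX Green, then micronucleus-gated events counted against nucleated events by flow cytometry with 488 nm excitation.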
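For relative survival (nuclei to bead ratio vs DMSO control) in this document: Lysed-cell nuclei stained with SYTOX Green and counted against counting beads by flow cytometry at 488 nm excitation, with vinblastine (no S9) and cyclophosphamide (plus S9) as positive controls.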

`CCN(CC)c1ccccc1` [N,N-Diethylaniline] gave a relative survival (CHO-K1 [1]; [4]) of 97.1, a relative survival (CHO-K1 [1]; [5]) of 95.8 and a relative survival (CHO-K1 [1]; [6]) of 106. The relative survival (CHO-K1 [1]; [7]) was 86.8, the relative survival (CHO-K1 [1]; [8]) was 103 and the relative survival (CHO-K1 [1]; [9]) was 96.2. For the same molecule, the relative survival (CHO-K1 [1]; [10]) was 100, the relative survival (CHO-K1 [1]; [11]) was 99.4 and the relative survival (CHO-K1 [1]; [12]) was 111. The relative survival (CHO-K1 [1]; [13]) was 102, the relative survival (CHO-K1 [1]; [14]) was 92.2 and the relative survival (CHO-K1 [1]; [15]) was 100. For the same molecule, the relative survival (CHO-K1 [1]; [16]) was 96, the relative survival (CHO-K1 [1]; [17]) was 93.6 and the relative survival (CHO-K1 [1]; [18]) was 100. For the same molecule, the relative survival (CHO-K1 [1]; [19]) was 95.5, the relative survival (CHO-K1 [1]; [20]) was 142 and the relative survival (CHO-K1 [1]; [21]) was 78.3. The relative survival (CHO-K1 [1]; [22]) was 129, the relative survival (CHO-K1 [1]; [23]) was 93.6 and the relative survival (CHO-K1 [1]; [24]) was 92.4. For the same molecule, the relative survival (CHO-K1 [1]; [25]) was 99, the relative survival (CHO-K1 [1]; [26]) was 92.4 and the relative survival (CHO-K1 [1]; [27]) was 111. The relative survival (CHO-K1 [1]; [28]) was 98.2, the relative survival (CHO-K1 [1]; [29]) was 111 and the relative survival (CHO-K1 [1]; [30]) was 97.1. For the same molecule, the relative survival (CHO-K1 [1]; [31]) was 101, the relative survival (CHO-K1 [1]; [32]) was 120 and the relative survival (CHO-K1 [1]; [33]) was 89.1. It also gave a relative survival (CHO-K1 [1]; [34]) of 96.2, a relative survival (CHO-K1 [1]; [35]) of 96.2 and a relative survival (CHO-K1 [1]; [36]) of 89.1. It also gave a relative survival (CHO-K1 [1]; [37]) of 91.1, a relative survival (CHO-K1 [1]; [38]) of 97.1 and a relative survival (CHO-K1 [1]; [39]) of 76.5. The micronucleus frequency (CHO-K1 [2]; [4]) was 0.92%, the micronucleus frequency (CHO-K1 [2]; [5]) was 1.2% and the micronucleus frequency (CHO-K1 [2]; [6]) was 0.82%. For the same molecule, the micronucleus frequency (CHO-K1 [2]; [7]) was 1.42%, the micronucleus frequency (CHO-K1 [2]; [8]) was 0.84% and the micronucleus frequency (CHO-K1 [2]; [9]) was 1.24%. It also gave a micronucleus frequency (CHO-K1 [2]; [10]) of 1%, a micronucleus frequency (CHO-K1 [2]; [11]) of 1.26% and a micronucleus frequency (CHO-K1 [2]; [12]) of 1.04%. For the same molecule, the micronucleus frequency (CHO-K1 [2]; [13]) was 1.24%, the micronucleus frequency (CHO-K1 [2]; [14]) was 0.94% and the micronucleus frequency (CHO-K1 [2]; [15]) was 1.34%. It also gave a micronucleus frequency (CHO-K1 [2]; [16]) of 1.1%, a micronucleus frequency (CHO-K1 [2]; [17]) of 1.48% and a micronucleus frequency (CHO-K1 [2]; [18]) of 1.18%. The micronucleus frequency (CHO-K1 [2]; [19]) was 1.22%, the micronucleus frequency (CHO-K1 [2]; [20]) was 0.92% and the micronucleus frequency (CHO-K1 [2]; [21]) was 0.84%. It also gave a micronucleus frequency (CHO-K1 [2]; [22]) of 1.12%, a micronucleus frequency (CHO-K1 [2]; [23]) of 1.18% and a micronucleus frequency (CHO-K1 [2]; [24]) of 1.08%. For the same molecule, the micronucleus frequency (CHO-K1 [2]; [25]) was 1.16%, the micronucleus frequency (CHO-K1 [2]; [26]) was 1.2% and the micronucleus frequency (CHO-K1 [2]; [27]) was 1.48%. It also gave a micronucleus frequency (CHO-K1 [2]; [28]) of 0.94%, a micronucleus frequency (CHO-K1 [2]; [29]) of 1.54% and a micronucleus frequency (CHO-K1 [2]; [30]) of 1.12%. The micronucleus frequency (CHO-K1 [2]; [31]) was 1.52%, the micronucleus frequency (CHO-K1 [2]; [32]) was 1.3% and the micronucleus frequency (CHO-K1 [2]; [33]) was 1.3%. It also gave a micronucleus frequency (CHO-K1 [2]; [34]) of 1.02%, a micronucleus frequency (CHO-K1 [2]; [35]) of 1.38% and a micronucleus frequency (CHO-K1 [2]; [36]) of 1.06%. The micronucleus frequency (CHO-K1 [2]; [37]) was 2.02%, the micronucleus frequency (CHO-K1 [2]; [38]) was 1.34% and the micronucleus frequency (CHO-K1 [2]; [39]) was 2.56%. It also gave a hypodiploid nuclei frequency (CHO-K1 [3]; [4]) of 0.34%, a hypodiploid nuclei frequency (CHO-K1 [3]; [5]) of 0.54% and a hypodiploid nuclei frequency (CHO-K1 [3]; [6]) of 0.24%. It also gave a hypodiploid nuclei frequency (CHO-K1 [3]; [7]) of 0.62%, a hypodiploid nuclei frequency (CHO-K1 [3]; [8]) of 0.26% and a hypodiploid nuclei frequency (CHO-K1 [3]; [9]) of 0.58%. For the same molecule, the hypodiploid nuclei frequency (CHO-K1 [3]; [10]) was 0.14%, the hypodiploid nuclei frequency (CHO-K1 [3]; [11]) was 0.32% and the hypodiploid nuclei frequency (CHO-K1 [3]; [12]) was 0.26%. The hypodiploid nuclei frequency (CHO-K1 [3]; [13]) was 0.48%, the hypodiploid nuclei frequency (CHO-K1 [3]; [14]) was 0.24% and the hypodiploid nuclei frequency (CHO-K1 [3]; [15]) was 0.44%. For the same molecule, the hypodiploid nuclei frequency (CHO-K1 [3]; [16]) was 0.2%, the hypodiploid nuclei frequency (CHO-K1 [3]; [17]) was 0.44% and the hypodiploid nuclei frequency (CHO-K1 [3]; [18]) was 0.3%. For the same molecule, the hypodiploid nuclei frequency (CHO-K1 [3]; [19]) was 0.46%, the hypodiploid nuclei frequency (CHO-K1 [3]; [20]) was 0.24% and the hypodiploid nuclei frequency (CHO-K1 [3]; [21]) was 0.86%. The hypodiploid nuclei frequency (CHO-K1 [3]; [22]) was 0.18%, the hypodiploid nuclei frequency (CHO-K1 [3]; [23]) was 0.76% and the hypodiploid nuclei frequency (CHO-K1 [3]; [24]) was 0.18%. For the same molecule, the hypodiploid nuclei frequency (CHO-K1 [3]; [25]) was 0.96%, the hypodiploid nuclei frequency (CHO-K1 [3]; [26]) was 0.2% and the hypodiploid nuclei frequency (CHO-K1 [3]; [27]) was 0.58%. It also gave a hypodiploid nuclei frequency (CHO-K1 [3]; [28]) of 0.36%, a hypodiploid nuclei frequency (CHO-K1 [3]; [29]) of 0.58% and a hypodiploid nuclei frequency (CHO-K1 [3]; [30]) of 0.32%. It also gave a hypodiploid nuclei frequency (CHO-K1 [3]; [31]) of 0.96%, a hypodiploid nuclei frequency (CHO-K1 [3]; [32]) of 0.14% and a hypodiploid nuclei frequency (CHO-K1 [3]; [33]) of 0.76%. It also gave a hypodiploid nuclei frequency (CHO-K1 [3]; [34]) of 0.18%, a hypodiploid nuclei frequency (CHO-K1 [3]; [35]) of 0.86% and a hypodiploid nuclei frequency (CHO-K1 [3]; [36]) of 0.3%. It also gave a hypodiploid nuclei frequency (CHO-K1 [3]; [37]) of 1.28%, a hypodiploid nuclei frequency (CHO-K1 [3]; [38]) of 0.12% and a hypodiploid nuclei frequency (CHO-K1 [3]; [39]) of 1.52%.
